The campaign covered roughly 48,000 compounds. About 550 (1.1%) were called active. Not shown: some 4% with an inconclusive outcome. No stated cut-off is given here; in the data, active means potency below about 15 µM; inconclusive means mostly about 16 µM to 33 µM; inactive means weaker than that. Some of the results follow.
Potency means the concentration at half of the fitted maximal effect.

The assay deals with Lysosomal acid glucosylceramidase (Homo sapiens) (UniProt P04062). As to the kind of experiment: Glucocerebrosidase.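 Further: the screen sought inhibitors.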 The settings on record: purified enzyme, resorufin glucoside fluorescence (screen aimed at inhibitors), 20 min. In a few lines: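 Wild-type enzyme at 0.2 nM final in 50mM citric acid/KH2PO4, 10mM sodium taurocholate, 0.01% tween-20, pH 5.9, with resorufin beta-D-glucopyranoside at 30 uM final. Compounds titrated, 20 min at RT, red fluorescence read; AC50 from titration.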
Chain of UniProt P04062 (P04062 whole entry, looked up): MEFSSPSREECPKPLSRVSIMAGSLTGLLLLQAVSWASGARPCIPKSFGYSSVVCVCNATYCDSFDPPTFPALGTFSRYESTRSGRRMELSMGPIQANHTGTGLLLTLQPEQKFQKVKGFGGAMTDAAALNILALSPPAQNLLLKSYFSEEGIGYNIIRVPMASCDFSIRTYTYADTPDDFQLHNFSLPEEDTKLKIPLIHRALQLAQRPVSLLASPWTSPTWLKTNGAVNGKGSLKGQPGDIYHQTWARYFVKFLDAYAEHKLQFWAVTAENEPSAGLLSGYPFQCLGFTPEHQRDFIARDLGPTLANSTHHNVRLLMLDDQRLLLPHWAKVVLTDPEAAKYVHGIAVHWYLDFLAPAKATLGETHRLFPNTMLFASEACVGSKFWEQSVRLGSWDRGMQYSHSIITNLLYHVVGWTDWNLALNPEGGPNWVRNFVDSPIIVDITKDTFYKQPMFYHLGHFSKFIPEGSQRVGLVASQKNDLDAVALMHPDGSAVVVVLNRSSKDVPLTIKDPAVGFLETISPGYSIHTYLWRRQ
As for `COc1ccc(CCNC(=O)CSc2nnc(Cn3c(=O)sc4ccccc43)n2C)cc1OC`, the Potency was inactive: > 76.9 µM. Regarding `CCC(=O)Nc1nonc1-c1nc2ccccc2n1CC(C)C`, the Potency is inactive: > 76.9 µM.

Turning to `Cn1nnnc1SCc1ccc(C(=O)Nc2nccs2)cc1`, the Potency was inactive: > 76.9 µM. Regarding `CCOc1ccc(C2C(C(=O)c3ccco3)=C(O)C(=O)N2Cc2cccnc2)cc1` (stereo not drawn), the Potency is inactive: > 76.9 µM. For `O=c1c2ccccc2nnn1CSc1nc2cc(Cl)ccc2c(=O)n1Cc1ccco1`, the Potency is inactive: > 76.9 µM.

Take `Cc1ccc(-c2noc(CCC(=O)N3CCN(c4cccc(C(F)(F)F)c4)CC3)n2)cc1`: the Potency was inactive: > 76.9 µM. For `O=C(CSc1n[nH]c(-c2ccncc2)n1)NC1CCS(=O)(=O)C1` (stereo not drawn) the value was inactive: > 76.9 µM. For `Cc1sc2nc3c(C(=O)N4CCN(c5ncccn5)CC4)cccn3c(=O)c2c1C` the value was inactive: > 76.9 µM. On to `CN(C)CCCN1C(=O)C(=O)/C(=C(/O)c2ccc3c(c2)OCO3)C1c1ccccn1` (stereo not drawn), for which the Potency is inactive: > 76.9 µM.

In the case of `COc1cc(NC(=O)CN(C)S(=O)(=O)c2ccc(C)cc2)cc(OC)c1`, the Potency result is “inactive”. As for `Cc1nc(C)c2c(c1C(F)(F)F)-c1ccccc1C2(F)F`, the Potency was inactive: > 76.9 µM.

Consider `CC(C)COC(=O)NCCOC(=O)Nc1cccc(Cl)c1`, for which the Potency was inactive: > 76.9 µM. Regarding `CCSc1nc(-c2ccccc2)c(C#N)c(=O)[nH]1`, the Potency is inactive: > 76.9 µM.

With `CSc1ccccc1NC(=O)CSc1nnnn1-c1ccccc1SC`, the Potency is inactive: > 76.9 µM. For the compound `Cc1ccc(C(=O)NCc2occc2C(=O)O)o1`, the Potency was inactive: > 76.9 µM.

For the compound `Cc1oc(C(C)(C)C)c(CN2CCCC2)c1C(=O)O`, the Potency is inactive: > 76.9 µM. For `O=C(Cn1ncc2c(=O)oc3ccccc3c21)NC1CC1` the value was inactive: > 76.9 µM; for `CCCc1cc2c(cc1NS(=O)(=O)c1ccc(CCNC(C)=O)cc1)OCO2`, inactive: > 76.9 µM. As to `C=CCN1CCN(C(c2ccc(OC)c(OC)c2)c2nnnn2C(C)(C)C)CC1` (stereo not drawn), the Potency entry was “inactive”. Consider `O=C(NC1CCCCC1)N(Cc1cc2cc3c(cc2[nH]c1=O)OCCO3)CC1CCCO1` (stereo not drawn), for which the Potency was inactive: > 76.9 µM. For `CCC(C)[C@H](NC(=O)NCc1ccccc1Cl)C(=O)OC` (stereo partly drawn) the value was inactive: > 76.9 µM; for `COC(=O)CCC(=O)COc1ccccc1C#N`, inactive: > 76.9 µM; for `CCCOc1ccc(Cn2c(=O)oc3ccc(C)cc32)cc1OC`, inactive: > 76.9 µM. `CCOC(=O)c1ccc(CNS(=O)(=O)c2c(C)ccc3nsnc23)o1`: the Potency was inactive: > 76.9 µM. With `O=C(Cn1c(=O)n(-c2ccc(F)cc2)c(=O)c2sccc21)N1CCCC1`, the Potency was inactive: > 76.9 µM. Turning to `CCN(CC)c1nc2n(c(=O)n1)CCO2`, the Potency is inactive: > 76.9 µM. For `O=C(NCC(=O)N(c1cccnc1)C(C(=O)NCc1ccco1)c1ccccc1)c1ccco1` (stereo not drawn), the Potency was inactive: > 76.9 µM. For `OC(COc1ccc(Cl)c2ccccc12)CN1CCN(c2ccccn2)CC1` (stereo not drawn) the value was “inactive”; for `Cc1nc2ccc3nc(NC(=O)c4ccc(S(=O)(=O)N5CCOCC5)cc4)sc3c2s1`, inactive: > 76.9 µM. As for `CC(C)n1c(Nn2cnnc2)nc2ccccc21`, the Potency is inactive: > 76.9 µM. For `CC(=O)N1C2CCCCC2S[C@H]2CCCCC21` (stereo partly drawn) the value was inactive: > 76.9 µM. Regarding `COc1ccc(NC(=O)CN2CCC(C)CC2)cc1`, the Potency was inactive: > 76.9 µM. As for `COC(=O)c1ccc(OCC(O)CN(CCO)CCO)cc1` (stereo not drawn), the Potency was inactive: > 76.9 µM. With `CN(C)S(=O)(=O)n1cnc2ccccc21`, the Potency is inactive: > 76.9 µM. As for `CCCc1nnc(SCC(=O)N2CCCC2)n1CC1CCCO1` (stereo not drawn), the Potency was inactive: > 76.9 µM.

For the compound `COCCn1c(SCCN2CCCCC2)nc2ccccc2c1=O`, the Potency was inactive: > 76.9 µM. With `O=C(CSc1nnc(C2COc3ccccc3O2)o1)N1CCOCC1` (stereo not drawn), the Potency was inactive: > 76.9 µM.

As for `CCCN(CCC)CCNC(=O)C1CCCN(S(=O)(=O)c2ccc3c(c2)oc(=O)n3C)C1` (stereo not drawn), the Potency is inactive: > 76.9 µM. For `Cc1ccccc1C(=O)NC1CCN(Cc2nnnn2Cc2ccc(F)cc2)CC1` the value was inactive: > 76.9 µM; for `Cc1cccc(N2CCCn3c2nc2c3c(=O)n(CC(=O)OCc3ccccc3)c(=O)n2C)c1`, inactive: > 76.9 µM. Take `COCCn1c(SCc2csc(-c3ccccc3)n2)nc2ccccc21`: the Potency is inactive: > 76.9 µM. For `Clc1ccccc1-c1nnc2sc(-c3ccc(Br)o3)nn12` the value was inactive: > 76.9 µM. For `O=C(NCc1ccccn1)C1CCN(S(=O)(=O)c2cccs2)CC1`, the Potency is inactive: > 76.9 µM. For `COc1ccc(OC)c(NC(=O)CSc2nnc(-c3ccco3)n2-c2ccccc2)c1` the value was inactive: > 76.9 µM; for `O=C(c1ccc(COc2c(F)c(F)cc(F)c2F)o1)N1CCN(c2ccc(Cl)cc2)CC1`, inactive: > 15.4 µM; for `CCN(Cc1cc2cc(C)ccc2[nH]c1=O)C(=O)c1cccc(OC)c1`, inactive: > 76.9 µM.

In the case of `CN1CCN(S(=O)(=O)c2ccc(NC(=O)C3CCCO3)cc2)CC1` (stereo not drawn), the Potency is inactive: > 76.9 µM.

For the compound `O=C(CC1(O)C(=O)Nc2ccccc21)c1ccc(-n2cccc2)cc1` (stereo not drawn), the Potency is inactive: > 76.9 µM. For `CCCc1cc(=O)[nH]c(SCC(=O)NC(=O)c2ccccc2)n1`, the Potency is inactive: > 76.9 µM.

On to `O=C(c1nn2cccnc2c1Cl)N1CCN(c2ccccc2)CC1`, for which the Potency is inactive: > 76.9 µM.

On to `COc1ccc(-c2nnc3ccc(SCC(=O)N4CCN(c5ccccc5)CC4)nn23)cc1`, for which the Potency was inactive: > 76.9 µM. `CCOc1cc(N2CCOCC2)c(OCC)cc1NC(=O)CSc1cccc[n+]1[O-]`: the Potency is inactive: > 76.9 µM.

For the compound `CCOc1ccc(NC(=O)CSc2nnc(-c3ccccc3)n2N)cc1`, the Potency is inactive: > 76.9 µM. For the compound `CCCn1c(SCC(=O)/C(C#N)=C(\C)N)n[nH]c1=O`, the Potency was inactive: > 76.9 µM. With `Cc1cc(C)n(C(CC(=O)O)C(=O)O)n1` (stereo not drawn), the Potency was inactive: > 76.9 µM. For `CC(=O)c1c(C)[nH]c(C(=O)NCc2ccccn2)c1C` the value was inactive: > 76.9 µM; for `COCCCn1c(=NC(=O)c2ccc3c(c2)OCO3)c(C#N)cc2c(=O)n3cccc(C)c3nc21`, inactive: > 76.9 µM; for `C=CCn1c(CCC(=O)O)ccc1-c1ccccc1`, inactive: > 76.9 µM.

The values are drawn from PubChem BioAssay AID360 (National Center for Advancing Translational Sciences (NCATS), 2006).
